This is an account of results in patent US8592383B2, “Cycloalkyl-fused tetrahydroquinolines as CRTH2 receptor modulators” (Merck Sharp & Dohme Corp., priority 2011, dated 2013).

The target in this test is T1, hCRTH2 (Homo sapiens, UniProt Q9Y5Y4).
T1 sequence (Q9Y5Y4 1-395): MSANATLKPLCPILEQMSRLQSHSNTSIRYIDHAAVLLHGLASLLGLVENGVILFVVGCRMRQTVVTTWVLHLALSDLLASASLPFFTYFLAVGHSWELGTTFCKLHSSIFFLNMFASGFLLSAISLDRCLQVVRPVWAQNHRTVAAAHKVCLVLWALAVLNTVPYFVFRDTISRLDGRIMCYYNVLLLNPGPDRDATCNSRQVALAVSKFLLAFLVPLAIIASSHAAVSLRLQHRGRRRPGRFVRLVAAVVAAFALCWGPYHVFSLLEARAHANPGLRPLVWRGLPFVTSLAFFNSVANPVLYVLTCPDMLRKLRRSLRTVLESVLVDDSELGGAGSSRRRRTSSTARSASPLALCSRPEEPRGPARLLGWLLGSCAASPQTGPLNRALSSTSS
The experiment in a line: biochemical. The settings on record: Ki (nM), Table A; Radioligand Binding Assay A, [3H]PGD2, HEK-hCRTH2 membranes.
What is called Ki is a measure of affinity in units of concentration, obtained from inhibition or displacement. A higher Ki goes with lower affinity. `O=C(O)CCC(=O)N(CCO)C1c2ccccc2N(C(=O)OCc2ccccc2)C2CCC12` (single isomer, unassigned) [compound 110, 3-(phenylmethyl) cis, cis-[(3-carboxy-1-oxopropyl)(2-hydroxyethyl)amino]-2,2a,8,8a-tetrahydrocyclobuta[b] quinoline-3(1H)-carboxylate] came in with a Ki of 201 to 7500 nM. On to `[2H]C1(N(C(=O)CCC(=O)O)C2CC2)c2ccccc2N(C(=O)OCc2ccccc2)C2CCC21` (single isomer, unassigned) [compound 111, 3-(phenylmethyl) deuterated-cis, cis-[(3-carboxy-1-oxopropyl)cyclopropylamino]-2,2a,8,8a-tetrahydrocyclobuta[b] quinoline-3(1H)-carboxylate-(8D)], for which the inhibitory constant (Ki) lay in the range of 5.1 to 20 nM.

As for `O=C(O)CCC(=O)N(C1CC1)C1c2ccccc2N(C(=O)OCc2ccc(OC(F)(F)F)c(F)c2)C2CCCC21` (single isomer, unassigned) [compound 112, 4-[[3-fluoro-4-(trifluoromethoxy)phenyl]methyl] cis, cis-[(3-carboxy-1-oxopropyl)cyclopropylamino]-1,2,3,3a,9,9a-hexahydro-4H-cyclopenta[b]quinoline-4-carboxylate], the Ki was in the range of 20.1 to 200 nM. `O=C(O)CCC(=O)N(C1CC1)C1c2ccccc2N(C(=O)OCc2cccs2)C2CCCC21` (single isomer, unassigned) [compound 114, 4-(2-thienylmethyl) cis, cis-[(3-carboxy-1-oxopropyl)cyclopropylamino]-1,2,3,3a,9,9a-hexahydro-4H-cyclopenta[b]quinoline-4-carboxylate] displayed an inhibition constant Ki of 20.1 to 200 nM. In the case of `O=C(O)CCC(=O)N(C1CC1)C1c2cc(F)c(F)cc2N(C(=O)OCc2ccccc2)C2CCC21` (single isomer, unassigned) [compound 115, 3-(phenylmethyl) 8-[(3-carboxy-1-oxopropyl)cyclopropylamino]-5,6-difluoro-2,2a,8,8a-tetrahydro-cyclobuta[b]quinoline-3(1H)-carboxylate], the Ki lay in the range of 201 to 7500 nM. With `O=C(O)CCC(=O)N(C1CC1)C1c2cc(F)c(F)cc2N(C(=O)OCc2ccccc2)C2CCC21` (single isomer, unassigned) [compound 116, 3-(phenylmethyl) 8-[(3-carboxy-1-oxopropyl)cyclopropylamino]-5,6-difluoro-2,2a,8,8a-tetrahydro-cyclobuta[b]quinoline-3(1H)-carboxylate], the Ki lay within 1 to 5 nM. For `O=C(O)CCCN(C1CC1)C1c2cc(F)c(F)cc2N(C(=O)OCc2ccccc2)C2CCC21` (single isomer, unassigned) [compound 117, 4-((cis, cis-3-(benzyloxycarbonyl)-5,6-difluoro-1,2,2a,3,8,8a-hexahyclrocyclobuta[b]quinolin-8-yl)(cyclopropyl)amino) butanoic acid], the Ki lay in the range of 1 to 5 nM.

For the molecule `O=C(O)CCC(=O)N(C1CC1)C1c2cc(F)c(Cl)cc2N(C(=O)OCc2ccccc2)C2CCCC21` (single isomer, unassigned) [compound 118, 4-(phenylmethyl) cis, cis-[(3-carboxy-1-oxopropyl)cyclopropylamino]-6-chloro-7-fluoro-1,2,3,3a,9,9a-hexahydro-4H-cyclopenta[b]quinoline-4-carboxylate], the inhibitory constant (Ki) fell in the range of 5.1 to 20 nM. In turn, `O=C(O)CCC(=O)N(C1CC1)C1c2cc(Cl)c(Cl)cc2N(C(=O)OCc2ccccc2)C2CCC21` (single isomer, unassigned) [compound 119, 3-(phenylmethyl) cis,cis-8-[(3-carboxy-1-oxopropyl)cyclopropylamino]-5,6-dichloro-2,2a,8,8a-tetrahydrocyclobuta[b] quinoline-3(1H)-carboxylate] showed an inhibitory constant (Ki) of 1 to 5 nM.

`O=C(O)CCC(=O)N(C1CC1)C1c2cc(Cl)c(Cl)cc2N(C(=O)OCc2ccccc2)C2CCC21` (single isomer, unassigned) [compound 120, 3-(phenylmethyl) cis,cis-8-[(3-carboxy-1-oxopropyl)cyclopropylamino]-5,6-dichloro-2,2a,8,8a-tetrahydrocyclobuta[b] quinoline-3(1H)-carboxylate] gave an inhibition constant (Ki) of 201 to 7500 nM. `[2H]C1(N(CCCC(=O)O)C2CC2)c2ccccc2N(C(=O)OCc2ccccc2)C2CCC21` (single isomer, unassigned) [compound 124, 3-(phenylmethyl) deuterated-cis,cis-8-[(3-carboxypropyl)cyclopropylamino]-2,2a,8,8a-tetrahydrocyclobuta[b] quinoline-3(1H)-carboxylate-(8D)] returned an inhibitory constant (Ki) of 5.1 to 20 nM. Molecule `O=C(O)CCCN(C1CC1)[C@H]1c2cc(F)ccc2N(C(=O)OCc2ccccc2)[C@H]2CCC[C@H]21` (single isomer, unassigned) [compound 125] gave an inhibition constant Ki of 5.1 to 20 nM. On to `O=C(O)CCCN(C1CC1)C1c2ccccc2N(C(=O)c2ccc(F)cc2)C2CCCC21` (single isomer, unassigned) [compound 130, 4-[cyclopropyl[cis,cis-4-(4-fluorobenzoyl)-2,3,3a,4,9,9a-hexahydro-1H-cyclopenta[b]quinolin-9-yl]amino]butanoic acid], for which the inhibitory constant (Ki) lay within 5.1 to 20 nM. The same measure for `O=C(O)CCC(=O)N(C1CC1)C1c2cc(F)ccc2N(C(=O)c2ccc(OC(F)(F)F)cc2)C2CCCC21` (single isomer, unassigned) [compound 134, 4-[cyclopropyl[cis, cis-7-fluoro-2,3,3a,4,9,9a-hexahydro-4-[4-(trifluoromethoxy)benzoyl]-1H-cyclopenta[b]quinolin-9-yl]amino]-4-oxobutanoic acid]: 201 to 7500 nM; for `O=C(O)CCC(=O)N(C1CC1)[C@H]1c2cc(F)ccc2N(C(=O)c2cccc(OC(F)(F)F)c2)[C@H]2CCC[C@H]21` (single isomer, unassigned) [compound 136]: 5.1 to 20 nM. For the molecule `CCC[C@@H](OC(=O)N1c2ccccc2C(N(C(=O)CCC(=O)O)C2CC2)C2CCCC21)c1ccccc1` (single isomer, unassigned) [compound 137], the inhibition constant Ki is 20.1 to 200 nM. Then `CCC[C@H](OC(=O)N1c2ccccc2C(N(C(=O)CCC(=O)O)C2CC2)C2CCCC21)c1ccccc1` (single isomer, unassigned) [compound 138], with 5.1 to 20 nM; and `CC[C@H](OC(=O)N1c2ccccc2C(N(C(=O)CCC(=O)O)C2CC2)C2CCCC21)c1ccccc1` (single isomer, unassigned) [compound 139], with 5.1 to 20 nM. As for `CC[C@@H](OC(=O)N1c2ccccc2C(N(C(=O)CCC(=O)O)C2CC2)C2CCCC21)c1ccccc1` (single isomer, unassigned) [compound 141], the inhibition constant Ki lay in the range of 20.1 to 200 nM.

`O=C(O)CCC(=O)N(C1CC1)C1c2ccccc2N(C(=O)OC(c2ccccc2)C2CC2)C2CCCC21` (single isomer, unassigned) [compound 142, 4-(cyclopropylphenylmethyl) cis, cis-[(3-carboxy-1-oxopropyl)cyclopropylamino]-1,2,3,3a,9,9a-hexahydro-4H-cyclopenta[b]quinoline-4-carboxylate] returned a Ki of 20.1 to 200 nM. As to `C[C@H](OC(=O)N1c2cc(F)ccc2C(N(C(=O)CCC(=O)O)C2CC2)C2CCCC21)c1ccccc1` (single isomer, unassigned) [compound 144], the Ki is 1 to 5 nM. Take `C[C@@H](OC(=O)N1c2cc(F)ccc2C(N(C(=O)CCC(=O)O)C2CC2)C2CCCC21)c1ccccc1` (single isomer, unassigned) [compound 145]: the Ki fell in the range of 5.1 to 20 nM. `C[C@H](OC(=O)N1c2cc(F)ccc2C(N(C(=O)CCC(=O)O)C2CC2)C2CCCC21)c1ccc(F)cc1` (single isomer, unassigned) [compound 146] had a Ki of 1 to 5 nM.

In the case of `O=C(O)CCC(=O)N(C1CC1)C1c2ccc(F)cc2N(C(=O)OCc2ccccn2)C2CCCC21` (single isomer, unassigned) [compound 148, 4-(2-pyridinylmethyl) cis, cis-[(3-carboxy-1-oxopropyl)cyclopropylamino]-6-fluoro-1,2,3,3a,9,9a-hexahydro-4H-cyclopenta[b]quinoline-4-carboxylate], the inhibition constant Ki was in the range of 5.1 to 20 nM.

With `O=C(O)CCC(=O)N(C1CC1)C1c2ccc(F)cc2N(C(=O)OC2Cc3ccccc3C2)C2CCCC21` (single isomer, unassigned) [compound 149, 4-(2,3-dihydro-1H-inden-2-yl) cis, cis-[(3-carboxy-1-oxopropyl)cyclopropylamino]-6-fluoro-1,2,3,3a,9,9a-hexahydro-4H-cyclopenta[b]quinoline-4-carboxylate], the inhibitory constant (Ki) fell in the range of 1 to 5 nM.

For `O=C(O)CCC(=O)N(C1CC1)C1c2ccc(F)cc2N(C(=O)OCc2ccccc2)C2CCCC21` (single isomer, unassigned) [compound 150, 4-(phenylmethyl) cis, cis-[(3-carboxy-1-oxopropyl)cyclopropylamino]-6-fluoro-1,2,3,3a,9,9a-hexahydro-4H-cyclopenta[b]quinoline-4-carboxylate], the inhibition constant (Ki) was in the range of 1 to 5 nM.

Take `O=C(O)[C@H]1CCN1C(=O)N(C1CC1)C1c2cc(F)c(F)cc2N(C(=O)OCc2ccccc2)C2CCC21` (single isomer, unassigned) [compound 151]: the inhibitory constant (Ki) was in the range of 5.1 to 20 nM. Then `O=C(O)CCC(=O)N(C1CC1)[C@H]1c2cc(F)ccc2N(C(=O)c2nc3ccccc3s2)[C@H]2CCC[C@H]21` (single isomer, unassigned) [compound 152], with 5.1 to 20 nM.
